Some of the results follow. Rule as the data show it: active = 3.2 or more and inactive = the rest. Only a few entries rise above the background.
How the values were obtained:
Experiment in all cases: enrichment score (SH2-bound / input frequency) (ratio); bacterial display of known human phosphotyrosine sites (pTyr-Var adds point mutants) read by sequencing; higher = stronger binding; tyrosines were phosphorylated by kinases first
Details in all cases: peptide library: pTyr-Var
[1] = biological target: SHP2 C-SH2 domain E139D
[2] = biological target: SHP2 C-SH2 domain wild-type
[3] = biological target: SHP2 N-SH2 domain L43F
[4] = biological target: SHP2 N-SH2 domain T42A
[5] = biological target: SHP2 N-SH2 domain T52S
[6] = biological target: SHP2 N-SH2 domain wild-type
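Also: displayed peptides selected on beads carrying the immobilized SH2 domain, with library peptides lacking any tyrosine serving as negative controls.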

B1: HMOX2_Y140 (peptide)
chain: VERIHYIGQNE
- enrichment score [1]: inactive: 1.09
- enrichment score [2]: inactive: 0.947
- enrichment score [3]: inactive: 0.58
- enrichment score [4]: inactive: 0.561
- enrichment score [5]: inactive: 0.565
- enrichment score [6]: inactive: 1.15

B2: HNF4A_Y144 (peptide)
chain: TRRSSYEDSSL
- enrichment score [1]: inactive: 0.41
- enrichment score [2]: inactive: 0.328
- enrichment score [3]: inactive: 0.41
- enrichment score [4]: inactive: 0.364
- enrichment score [5]: inactive: 0.341
- enrichment score [6]: inactive: 0.366

B3: HNF4A_Y286 (peptide)
chain: IDDNEYAYLKA
- enrichment score [1]: inactive: 0.478
- enrichment score [2]: inactive: 0.387
- enrichment score [3]: inactive: 0.494
- enrichment score [4]: inactive: 0.528
- enrichment score [5]: inactive: 0.592
- enrichment score [6]: inactive: 0.536

B4: HNF4A_Y286_E285Q (peptide)
chain: IDDNQYAYLKA
- enrichment score [1]: inactive: 0.59
- enrichment score [2]: inactive: 0.62
- enrichment score [3]: inactive: 0.754
- enrichment score [4]: inactive: 0.609
- enrichment score [5]: inactive: 0.671
- enrichment score [6]: inactive: 0.625

B5: HNF4A_Y286_YF (peptide)
chain: IDDNEYAFLKA
- enrichment score [1]: inactive: 0.777
- enrichment score [2]: inactive: 0.587
- enrichment score [3]: inactive: 0.578
- enrichment score [4]: inactive: 0.535
- enrichment score [5]: inactive: 0.613
- enrichment score [6]: inactive: 0.674

B6: HNF4A_Y288 (peptide)
chain: DNEYAYLKAII
- enrichment score [1]: inactive: 0.664
- enrichment score [2]: inactive: 0.75
- enrichment score [3]: inactive: 0.596
- enrichment score [4]: inactive: 0.72
- enrichment score [5]: inactive: 0.635
- enrichment score [6]: inactive: 0.853

B7: HNF4A_Y288_E285Q_YF (peptide)
chain: DNQFAYLKAII
- enrichment score [1]: inactive: 0.655
- enrichment score [2]: inactive: 0.621
- enrichment score [3]: inactive: 0.618
- enrichment score [4]: inactive: 0.682
- enrichment score [5]: inactive: 0.693
- enrichment score [6]: inactive: 0.708

B8: HNF4A_Y288_YF (peptide)
chain: DNEFAYLKAII
- enrichment score [1]: inactive: 0.438
- enrichment score [2]: inactive: 0.579
- enrichment score [3]: inactive: 0.558
- enrichment score [4]: inactive: 0.462
- enrichment score [5]: inactive: 0.564
- enrichment score [6]: inactive: 0.74

B9: HNRNPA1_Y312_D314V (peptide)
chain: GGGGSYNVFGN
- enrichment score [1]: inactive: 0.876
- enrichment score [2]: inactive: 0.742
- enrichment score [3]: inactive: 0.601
- enrichment score [4]: inactive: 0.66
- enrichment score [5]: inactive: 0.65
- enrichment score [6]: inactive: 0.708

B10: HNRNPA1_Y318 (peptide)
chain: NDFGNYNNQSS
- enrichment score [1]: inactive: 0.679
- enrichment score [2]: inactive: 0.656
- enrichment score [3]: inactive: 0.716
- enrichment score [4]: inactive: 0.51
- enrichment score [5]: inactive: 0.593
- enrichment score [6]: inactive: 0.543

B11: HNRNPA1_Y341 (peptide)
chain: RSSGPYGGGGQ
- enrichment score [1]: inactive: 0.462
- enrichment score [2]: inactive: 0.495
- enrichment score [3]: inactive: 0.397
- enrichment score [4]: inactive: 0.429
- enrichment score [5]: inactive: 0.513
- enrichment score [6]: inactive: 0.513

B12: HNRNPA2B1_Y300_YF (peptide)
chain: FGSGNYNDFGN
- enrichment score [1]: inactive: 0.669
- enrichment score [2]: inactive: 0.901
- enrichment score [3]: inactive: 0.63
- enrichment score [4]: inactive: 0.855
- enrichment score [5]: inactive: 0.698
- enrichment score [6]: inactive: 1.2

B13: HNRNPF_Y82 (peptide)
chain: SMGHRYIEVFK
- enrichment score [1]: inactive: 1.13
- enrichment score [2]: inactive: 1.78
- enrichment score [3]: inactive: 2.68
- enrichment score [4]: active: 4.05
- enrichment score [5]: inactive: 3.08
- enrichment score [6]: inactive: 1.67

B14: HNRNPH2_Y210 (peptide)
chain: QRPGPYDRPGA
- enrichment score [1]: inactive: 0.72
- enrichment score [2]: inactive: 0.564
- enrichment score [3]: inactive: 0.496
- enrichment score [4]: inactive: 0.421
- enrichment score [5]: inactive: 0.482
- enrichment score [6]: inactive: 0.562

B15: HNRNPH2_Y210_R206Q (peptide)
chain: QQPGPYDRPGA
- enrichment score [1]: inactive: 0.355
- enrichment score [2]: inactive: 0.431
- enrichment score [3]: inactive: 0.394
- enrichment score [4]: inactive: 0.309
- enrichment score [5]: inactive: 0.298
- enrichment score [6]: inactive: 0.471

B16: HNRNPH2_Y210_R206W (peptide)
chain: QWPGPYDRPGA
- enrichment score [1]: inactive: 0.747
- enrichment score [2]: inactive: 0.578
- enrichment score [3]: inactive: 0.691
- enrichment score [4]: inactive: 0.578
- enrichment score [5]: inactive: 0.611
- enrichment score [6]: inactive: 0.789

B17: HNRNPH3_Y159_N163S_YF (peptide)
chain: GGFNNYGFGSD
- enrichment score [1]: inactive: 0.636
- enrichment score [2]: inactive: 0.588
- enrichment score [3]: inactive: 0.601
- enrichment score [4]: inactive: 0.469
- enrichment score [5]: inactive: 0.572
- enrichment score [6]: inactive: 0.614

B18: HNRNPH3_Y159_YF (peptide)
chain: GGFNNYGFGND
- enrichment score [1]: inactive: 0.905
- enrichment score [2]: inactive: 0.621
- enrichment score [3]: inactive: 0.63
- enrichment score [4]: inactive: 0.518
- enrichment score [5]: inactive: 0.737
- enrichment score [6]: inactive: 1.06

B19: HNRNPH3_Y161_N163S (peptide)
chain: YNNYGYGSDGF
- enrichment score [1]: inactive: 0.636
- enrichment score [2]: inactive: 0.454
- enrichment score [3]: inactive: 0.541
- enrichment score [4]: inactive: 0.438
- enrichment score [5]: inactive: 0.566
- enrichment score [6]: inactive: 0.592

Source: the supplement of paper PMC10369915
